In PubChem BioAssay AID463173 (ICCB-Longwood Screening Facility, Harvard Medical School, 2010) one finds survival data, which are given here for 92 molecules.

SMILES strings stand for the structures. In all, about 52,000 compounds went through this assay and about 4,300 (8.3%) were called active. Rule as the data show it: active = survival mostly below about 52% (no sharp cut-off); inactive = mostly above about 56%. Some of the results follow.

The subject of the assay is DeltatarO mutant. Kind of assay: growth inhibition of S. aureus wild type versus tarO mutant, primary screen, teichoic acid synthesis inhibitors, RN4220, OD600 (AID 463173). The following applies: OD600, 18 h, stronger effect = lower value, screened at 18.75 µg/mL (by protocol).
Consider `CCOC(=O)CC(NC(=O)Cn1nnc(-c2ccccc2C)n1)c1ccc(OC)cc1` (configuration not stated), for which the survival was inactive: 56%.

For the molecule `CCC(=O)N1CCc2cc(Br)cc(S(=O)(=O)CCC(=O)Nc3ccccc3C)c21`, the survival was inactive: 87%.

In the case of `COc1ccc(N(C)C(=O)NCc2noc3ccc(C)cc23)c(OC)c1`, the survival was inactive: 90%.

Take `CCCNC(=O)Nc1cc(C(=O)NCc2cccc(OCC)c2)ccc1N1CCCC1`: the survival is inactive: 67%.

`Cc1cc(C)c2c(=O)cc(CSCC(=O)Nc3nnc(C)s3)[nH]c2c1`: the survival was inactive: 90%.

For the molecule `COc1ccccc1NC(=O)CSCc1cc(=O)c2c(C)cc(C)cc2[nH]1`, the survival is inactive: 80%.

Consider `COc1ccc(C(=O)CCC(=O)Nc2ccccc2C)cc1`, for which the survival is inactive: 102%.

For the molecule `CCC(Sc1nncn2c1cc1sccc12)C(=O)Nc1cccc(OC)c1` (configuration not stated), the survival was inactive: 67%.

Take `CC(C)(C)C1CCc2nc(NC(=O)Cc3ccc(Cl)cc3)sc2C1` (configuration not stated): the survival is active: 18%.

Turning to `CC(C)(C)C(=O)NC1CCN(CC(=O)Nc2ccccc2)CC1`, the survival is inactive: 77%.

In the case of `CN1CCN(C(=O)/C=C\C(=O)O)CC1`, the survival is inactive: 105%.

With `CCCCc1noc2c1/C(=N\O)CC(c1ccccc1)C2` (configuration not stated), the survival was inactive: 86%.

Regarding `Cc1cccc(-c2noc(C3CC(=O)N(c4ccc5c(c4)OCCO5)C3)n2)c1` (configuration not stated), the survival is inactive: 105%.

`COc1ccc(NC(=O)Cn2c(C)c3cnn(-c4ccccc4)c(=O)c3c2C)c(OC)c1`: the survival is inactive: 87%.

Regarding `Cc1cc(C)n(C(C)CC(=O)O)n1` (configuration not stated), the survival was inactive: 95%.

For the molecule `CCc1ccc(C(=O)c2cn(CC(=O)Nc3ccc(F)cc3)c3cc4c(cc3c2=O)OCO4)cc1`, the survival is inactive: 124%.

In the case of `Cc1cc(OCC(=O)Nc2sc3c(c2C(N)=O)CCCC3)ccc1C(C)C`, the survival is inactive: 71%.

For `COc1ccc(-c2nc(SCC(=O)NCCCc3ccccc3)n[nH]2)cc1`, the survival was inactive: 89%.

Turning to `COc1ccc(NC(=O)CCc2c(C)nn(-c3ccc(N4CCOCC4)nn3)c2C)cc1Cl`, the survival was inactive: 81%.

Regarding `CCN(CC)CCCNC(=O)c1oc2c(c1C)-c1nn(Cc3ccc(Cl)cc3)cc1CC2`, the survival is inactive: 90%.

Regarding `Cc1ccc2occ(CC(=O)Nc3ccc(S(N)(=O)=O)cc3)c2c1`, the survival is inactive: 117%.

As for `O=C(CSc1ncn[nH]1)c1ccc(Cl)cc1`, the survival was inactive: 110%.

With `CCOC(=O)CSc1nc2cc3c(cc2c(=O)n1CCCC(=O)NCc1ccc2c(c1)OCO2)OCO3`, the survival was inactive: 83%.

Take `COC(=O)CN1C(=O)CSc2ccc(S(=O)(=O)Nc3ccc(Cl)cc3C)cc21`: the survival was inactive: 124%.

With `Cc1ccc2ccc(C(Nc3ccccn3)c3ccccc3)c(O)c2n1` (configuration not stated), the survival is active: 39%.

Regarding `C=Cc1ccc(CSc2nc(-c3ccc(OC)cc3)nc3c2Cc2c(CO)cnc(C)c2O3)cc1`, the survival is inactive: 93%.

As to `CC(C)Cc1nn2c(=O)cc(COC(=O)c3cccc(NC(=O)CCc4ccccc4)c3)nc2s1`, the survival is inactive: 83%.

In the case of `COc1cccc(-c2nc3c(c(SCc4ccccc4)n2)Cc2c(CO)cnc(C)c2O3)c1`, the survival was inactive: 98%.

Turning to `CC(C)(C)NC(=O)CN1CCN(c2nc(-c3ccc(Cl)cc3)cs2)CC1`, the survival is inactive: 83%.

Consider `NC(=O)c1cc(S(=O)(=O)NCc2ccccc2)cs1`, for which the survival was inactive: 110%.

Turning to `CN(C(=O)CCNC(=O)Cn1cnc2ccccc2c1=O)c1ccccc1F`, the survival is inactive: 69%.

With `CCCn1c(=O)n(-c2ccccc2)c(=O)c2sc3ccccc3c21`, the survival is inactive: 83%.

Turning to `CCOc1ccc(CCNC(=O)CN2CCN(Cc3ccc(F)cc3Cl)C2=O)cc1OCC`, the survival is inactive: 75%.

Regarding `C=CCc1c(C)nc2nc(SCC(=O)Nc3ccccc3CC)nn2c1C`, the survival is inactive: 55%.

For `Cc1ccc(Nc2c(-c3ccc(C)cc3)nc3cnccn23)cc1`, the survival is active: 35%.

As to `COc1ccccc1CNC(=O)Cn1ncc2c(=O)oc3ccc(C)cc3c21`, the survival was inactive: 78%.

For the molecule `CCCCC(=O)Nc1cccc(OCc2cc(=O)n3ccccc3n2)c1`, the survival was inactive: 87%.

Turning to `COc1cc(C(=O)Nc2cc(C)ccc2OCc2cc(=O)n3cc(C)sc3n2)cc(OC)c1OC`, the survival is inactive: 89%.

Take `Cc1ccccc1CS(=O)(=O)Cc1ccc(C(=O)NCCc2ccccc2)o1`: the survival is inactive: 86%.

For the molecule `COc1ccccc1C(=O)Nc1nc2ccc(S(=O)(=O)N3CCCC3)cc2s1`, the survival was inactive: 73%.

Take `NCCc1nnc(SCc2ccc(Cl)cc2)o1`: the survival is inactive: 159%.

On to `COc1ccccc1OCc1ccoc1C(=O)O`, for which the survival is inactive: 92%.

Regarding `COc1ccc(C(=O)CN2C(=O)N(c3cc(C)cc(C)c3)S(=O)(=O)c3ccccc32)cc1`, the survival was inactive: 67%.

On to `Cc1cccc(NCc2ccc(N(C)C)cc2)n1`, for which the survival is inactive: 83%.

With `Cc1cccc(NC(=O)C(=O)NCC(c2cccnc2)N2CCOCC2)c1` (configuration not stated), the survival is inactive: 76%.

As to `COc1ccc(C)cc1NC(=O)C(=O)NCCc1csc(-c2ccc(C)cc2)n1`, the survival was inactive: 102%.

Regarding `CS(=O)(=O)N1CCN(C2CCCCC2)CC1`, the survival is inactive: 116%.

Regarding `Cc1ccc(NC(=O)CSc2nc3c(c(=O)[nH]2)CN(Cc2ccc4c(c2)OCO4)CC3)cc1C`, the survival was inactive: 77%.

As for `Cn1c(=O)c2c(SCC(=O)NCc3ccco3)nc(-c3ccccc3Cl)nc2n(C)c1=O`, the survival was inactive: 66%.

`CCOC(=O)c1ccc(NC(=O)c2oc3ccc4c(c3c2C)C(=O)CC(C)(CC)O4)cc1` (configuration not stated): the survival was inactive: 85%.

In the case of `CCOC(=O)C1CCCN(c2ncnc3c2cnn3-c2ccc(C)c(Cl)c2)C1` (configuration not stated), the survival was inactive: 88%.

As to `O=C(OC1OCCOC1OC(=O)C1CCCCC1)C1CCCCC1` (configuration not stated), the survival was inactive: 90%.

Turning to `CC(C)c1ccc(CNCCSc2nnnn2C)cc1`, the survival was inactive: 88%.

With `Cc1ccc(S(=O)(=O)N=C2SCCCS2)cc1`, the survival was inactive: 91%.

As for `CC(=O)Nc1c(C)nn(-c2ccccc2)c1N1CCC(C(=O)Nc2cc(Cl)ccc2C)CC1`, the survival was inactive: 86%.

As for `CCc1ccccc1NC(=O)c1cc(S(=O)(=O)NCCc2ccc(OC)c(OC)c2)ccc1F`, the survival is active: 8%.

For `COc1ccc(OCC(=O)Nn2cnnc2)cc1`, the survival was inactive: 73%.

For `Cc1nc2c(-c3ccccc3)c(C)nn2c(C)c1CCC(=O)NCc1cccc(Cl)c1`, the survival was inactive: 109%.

`Cc1nnc(NC(=O)c2nc(S(=O)(=O)Cc3ccccc3)ncc2Cl)s1`: the survival is active: 48%.

`CN1CCN(CCCNC(=O)c2cnn(-c3ccccc3)c2C2CCN(C(=O)OC(C)(C)C)CC2)CC1`: the survival was inactive: 119%.

As for `CCC(C)NC(=O)c1ccc2c(c1)N(Cc1ccccc1)C(=O)c1ccccc1S2(=O)=O` (configuration not stated), the survival is inactive: 56%.

Turning to `Cc1ccc2nc(-c3ccccn3)c(Nc3ccc(F)cc3)n2c1`, the survival was active: 10%.

Turning to `CCC(Oc1ccccc1)C(=O)Nc1ccccc1OCc1cc(=O)n2ccccc2n1` (configuration not stated), the survival was inactive: 94%.

Regarding `CC1=C(C(=O)Nc2ccc(Cl)cc2)C(C(C)C)n2nc(SCc3cccc(C)c3)nc2N1` (configuration not stated), the survival is inactive: 90%.

Regarding `CCOC(=O)c1c(C)c(C(=O)NCCc2ccc(OC)cc2)c(C)n1C`, the survival is inactive: 99%.

Consider `CCc1nn(CC(=O)Nc2cccc(C)c2C)c(=O)c2cc3sccc3n12`, for which the survival was inactive: 81%.

Regarding `Cc1cccc(CNC(=O)c2cnc3sc(N4CCCCC4)nn3c2=O)c1`, the survival is inactive: 113%.

Regarding `Cc1ccc(CCNC(=O)C2CCCN(Cc3nc(-c4cccc(Cl)c4)oc3C)C2)cc1` (configuration not stated), the survival was active: 25%.

With `CN(C(=O)CSc1cn(CC(=O)N2CCCCC2)c2ccccc12)c1ccccc1`, the survival is inactive: 80%.

Take `O=C(Cc1ccc(F)cc1)N1CCC(c2nc3c(nnn3Cc3ccc(Cl)cc3)c(=O)[nH]2)CC1`: the survival was active: 27%.

As to `COc1ccc(/C=C/c2nc(C#N)c(N3CCN(c4ccccc4)CC3)o2)cc1OC`, the survival is inactive: 88%.

In the case of `CCc1ccc(NC(=O)Cn2cnc3sc(C)c(S(=O)(=O)N4CCC(C)CC4)c3c2=O)cc1`, the survival is inactive: 78%.

As for `CCCC(=O)NCC(c1ccc2c(c1)OCO2)N1CCN(c2ccc(F)cc2)CC1` (configuration not stated), the survival was inactive: 78%.

Take `COc1ccc(-c2nc3c(C#N)c[nH]n3c2NC2CCCCC2)c(OC)c1`: the survival was inactive: 55%.

Turning to `COc1ccc(-n2ncc(C(=O)NCc3ccccc3)c2C2CCN(C(=O)OC(C)(C)C)CC2)cc1`, the survival is inactive: 70%.

`Cc1sc2nc(CN(CCc3ccccc3)C(=O)c3ccco3)[nH]c(=O)c2c1C`: the survival was inactive: 83%.

For the molecule `COc1cccc(-n2ccnc2SCC(=O)Nc2cccc(C)c2C)c1`, the survival was inactive: 90%.

For `O=C(CN1CCC(n2nnc3ccccc32)CC1)Nc1cccc(F)c1`, the survival was inactive: 95%.

Take `Cc1cc2c(cc1S(=O)(=O)NCc1ccc(N(C)C)cc1)OCC(=O)N2`: the survival was inactive: 80%.

For `CCCN(C(=O)c1cc2c(s1)-c1ccccc1SC2)c1ccccc1F`, the survival was active: 1%.

With `COc1ccc(N(CC(=O)NC(C)c2ccccc2)S(=O)(=O)c2c(C)noc2C)cc1` (configuration not stated), the survival is inactive: 88%.

On to `CC1(c2ccc(Cl)cc2)CC(C)(C)N(C(=O)c2ccccc2)c2ccccc21` (configuration not stated), for which the survival is active: -4%.

For the molecule `Cc1ccc(CN2CCC(CNc3ncnc4onc(-c5ccc(Cl)cc5)c34)CC2)cc1`, the survival is inactive: 80%.

`COc1ccc(CCNC(=O)CCn2c(=O)c3cccn3c3ccc(F)cc32)c(OC)c1OC`: the survival is active: 39%.

Turning to `Cc1ccc(OCc2nc3ccccc3n2CC(C)C)cc1`, the survival is active: 1%.

Turning to `CCOc1ccccc1CNC(=O)Nc1cn(CC(C)C)c(=O)c2ccccc12`, the survival was inactive: 99%.

Regarding `CC(=O)N1c2ccccc2CC1C(=O)N1CCN(c2ccc(F)cc2)CC1` (configuration not stated), the survival was inactive: 113%.

For the molecule `COc1ccc(C)cc1NC(=O)c1oc2ccc(S(=O)(=O)N(C)C3CCCCC3)cc2c1C`, the survival is inactive: 80%.

With `COC(=O)C1CCN(S(=O)(=O)c2cc3c4c(c2)C(C)C(=O)N4CCC3)CC1` (configuration not stated), the survival is inactive: 99%.

In the case of `CCOC(=O)/C(C#N)=C\N1CCOCC1`, the survival is inactive: 81%.

For `CC(C)(C)c1cc(C(C)(C)C)c2oc(=O)c(-c3nc4ccccc4[nH]3)cc2c1`, the survival was inactive: 69%.

For the molecule `O=C(CSc1nc2ccccc2c2nc(-c3ccccc3)nn12)Nc1ccc(Br)cc1`, the survival is inactive: 94%.
